Measurements reported in PubChem BioAssay AID1240 (Sanford-Burnham Center for Chemical Genomics, 2008).
“And” between values parts separate entries of the source, which are not always exact repeats. Equal entries are not always repeated. Hit rate of the full screen: of about 50,000 compounds, about 800 (1.6%) showed an effect of 50% or more. The list shows a part of the results.

Molecular target: Bcl-2-like protein 10 (Homo sapiens) (UniProt Q9HD36)
Assay: Phenotype converters, Bcl-B/TR3 peptide binding displacement, primary biochemical FP (AID 1240);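 note: 0% = Bcl-B with tracer peptide and DMSO and 100% = tracer peptide lacking Bcl-B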
Settings: GST-Bcl-B / FITC-TR3 peptide fluorescence polarization; stronger effect = higher value; compound at 3.75 mg/L

Sequence of UniProt Q9HD36 (Q9HD36 whole entry, looked up): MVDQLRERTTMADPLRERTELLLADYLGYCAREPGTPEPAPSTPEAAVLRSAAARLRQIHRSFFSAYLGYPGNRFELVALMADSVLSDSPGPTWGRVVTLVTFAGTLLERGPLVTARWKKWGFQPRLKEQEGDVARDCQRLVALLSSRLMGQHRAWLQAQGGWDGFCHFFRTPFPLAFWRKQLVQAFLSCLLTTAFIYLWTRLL

Row | Compound | displacement
1 | CCOC(=O)C(C)(C)ON1CC1(C(F)(F)F)C(F)(F)F (centres undefined) | -1.7%
2 | O=Cc1cn(Cc2ccc(Br)cc2)c2ccccc12 | 0.2%
3 | NCC(O)CNc1ccc([N+](=O)[O-])c2cccnc12 (centres undefined) | -7.7%
4 | CCC(C)N1CCN(C(=O)COc2ccc(Cl)cc2)CC1 (centres undefined) | 9.2%
5 | Cc1c(Br)c([N+](=O)[O-])nn1CC(=O)Nc1ccc(Cl)cc1C(=O)c1ccccc1 | -10.5%
6 | COc1ccc(C2c3c(c4ccccc4oc3=O)Oc3c2c(=O)oc2ccccc32)cc1COc1ccccn1 | -2.4%
7 | COc1ccccc1CCNCc1ccccc1Cl | 3.9%
8 | COC(C(=O)Nc1ccc(Br)cc1C(=O)c1ccccc1)c1ccccc1 (centres undefined) | -17.4%
9 | COc1cc(C2c3c(c4ccccc4oc3=O)Oc3c2c(=O)oc2ccccc32)cc(OC)c1OC | 11.8%
10 | O=C(Nc1ccc(Cl)cc1C(=O)c1ccccc1)c1cc2ccccc2o1 | 1.6%
11 | O=C(Cc1ccccc1)N1CCN(Cc2ccco2)CC1 | -7.4%
12 | O=c1c2ccccc2nc(-c2ccccc2F)n1-c1cccc(Cl)c1 | -2.3%
13 | O=c1c2ccccc2nc(-c2ccc(Cl)cc2Cl)n1-c1ccc(Br)cn1 | -24.1%
14 | CCN(CC)C(=O)c1ccc(NC(=O)C(F)(F)F)cc1 | -10.4%
15 | O=[N+]([O-])c1ccc(N2CCNCC2)cc1NCCc1ccccc1 | 12.1%
16 | COc1ccccc1CCNCc1ccc(Cl)cc1 | -3.5%
17 | O=c1oc2ccccc2c2c1C(c1ccc(Br)cc1)c1c(c3ccccc3oc1=O)O2 | 13.7%
18 | Cc1ccc(-n2c(-c3ccncc3)nc3ccccc3c2=O)cc1 | 2%
19 | O=C1NC(=S)NC(=O)C1=Cc1ccc(-c2cc(Cl)c([N+](=O)[O-])cc2Cl)o1 | 19.3%
20 | O=[N+]([O-])N=C1NCN(c2ccc(Cl)cc2)CN1 | -1.2%
21 | O=C(NC(Oc1ccccc1Br)C(Cl)(Cl)Cl)c1ccco1 (centres undefined) | 14.1%
22 | O=C(COc1ccccc1)N1CCN(Cc2ccccc2)CC1 | 7.1%
23 | CCCCCn1c(=O)c(C(=O)Nc2nc(C)cs2)c(O)c2ccccc21 | 5.2%

Row | Compound | displacement
24 | O=C1NC(=S)N(c2ccc(Cl)cc2)C(=O)/C1=C/c1ccc(-c2ccccc2C(=O)O)o1 | 1.9%
25 | CC1(C)C2([N+](=O)[O-])CNCC1([N+](=O)[O-])CNC2 | -0.3%
26 | Cc1ccc(C(=O)C(C)(C)NO)cc1 | 14.4%
27 | Cc1cc(OCC(=O)c2ccccc2)c2c3c(c(=O)oc2c1)CCC3 | 9.7%
28 | CC(=O)OC1CCC2(C)C(=CCC3C4C/C(=C\c5ccc([N+](=O)[O-])cc5)C(=O)C4(C)CCC32)C1 (centres undefined) | 2.6%
29 | CN(C)c1ccc(/C=N/NC(=O)C(=O)NN/C(N)=N\[N+](=O)[O-])cc1 | -7.8%
30 | Cc1cc(C)nc(NS(=O)(=O)c2ccc(N=Cc3c(O)n(C)c(=O)n(C)c3=O)cc2)n1 | 15%
31 | COc1ccc(/C=C2\CC3C4CC=C5CC(O)CCC5(C)C4CCC3(C)C2O)cc1 (centres undefined) | -6.9%
32 | CCC1(CC)C(=O)N(C)C(=O)N(C)C1=O | 11.5%
33 | COP(=S)(OC)SCN1C(=O)c2ccccc2C1=O | 10.9%
34 | O=Cc1cn(Cc2ccccc2Cl)c2ccccc12 | -1%
35 | Cc1nc2ccccc2c(=O)n1-c1ccncc1 | 16.4%
36 | CC(C)OC1N/C(=N\[N+](=O)[O-])N(C)C1OC(C)C (centres undefined) | 0.8%
37 | O=c1c2ccccc2nc(/C=C/c2cc(Br)ccc2O)n1-c1cccc([N+](=O)[O-])c1 | -14.1%
38 | CCCC(=O)c1ccc(N2CCNCC2)c(F)c1 | -11%
39 | CCc1ccc(CN2CCN(C(=O)COc3ccc4ccccc4c3)CC2)cc1 | -6.3%
40 | COC(=O)c1[nH]cnc1C(=O)Nc1ccc(Cl)cc1C(=O)c1ccccc1 | 12.7% and 8%
41 | C=C(C)c1cccc(C(C)(C)NC(=O)NC2CN3CCC2CC3)c1 (centres undefined) | -0.9%
42 | CN1C(=O)NC(=O)/C(=C\c2ccc(C(=O)O)cc2)C1=O | 1.8%
43 | Cc1c(C=O)c2ccccc2n1Cc1ccc(Cl)cc1 | -3.4%
44 | O=c1c2ccccc2nc(-c2ccccc2)n1-c1ccc(Br)cn1 | -8.5%
45 | Cc1ccccc1N1C(=O)/C(=C/c2ccc(OCc3cccc(C(=O)O)c3)cc2)C(=O)NC1=S | 10.3%
46 | COc1ccc(/C=C2\C(=O)C3CCN2CC3)c(OC)c1 | -5%

Row | Compound | displacement
47 | CN1C(=O)C(=Cc2ccc(-c3cc(C(=O)O)ccc3Cl)o2)C(=O)N(C)C1=O | -2.5%
48 | CN(C)c1ccc(/C=C/c2nc3ccccc3c(=O)n2-c2ccccn2)cc1 | -67%
49 | CN1C(=O)NC(=O)/C(=C/c2ccc(-c3ccccc3[N+](=O)[O-])o2)C1=O | 35.6%
50 | O=C(Cc1ccccc1)N1CCN(C2CC3CCC2C3)CC1 (centres undefined) | 16.4%
51 | COC(=O)C(c1ccccc1)N1CCCCCC1 (centres undefined) | 5.2%
52 | CCC1(C)CC(CCNCc2ccc(N(C)C)cc2)(c2ccc(C)cc2)CCO1 (centres undefined) | -11.1%
53 | O=C1NC(=O)C(=Cc2ccc(OCc3cccc(C(=O)O)c3)cc2)C(=O)N1 | 0.7%
54 | Cc1cc(/C=C2\C(=O)NC(=S)N(c3ccccc3F)C2=O)c(C)n1C | 14.1%
55 | CCC(=O)N1CC(=O)Nc2ccc(C)cc2C1c1ccccc1 (centres undefined) | -13.1%
56 | CCOc1ccc(N2C(=O)NC(=O)/C(=C\c3ccc(Sc4nc5ccccc5[nH]4)o3)C2=O)cc1 | 16.8%
57 | O=[N+]([O-])c1ccc(N2CCNCC2)cc1NCCOc1ccccc1 | 10.8%
58 | O=C(Cc1ccccc1)N1CCN(Cc2cccnc2)CC1 | 9.9%
59 | COc1ccc(C(c2c(O)c3ccccc3oc2=O)c2c(O)c3ccccc3oc2=O)cc1Cn1nc(C)c([N+](=O)[O-])c1C | 6.5%
60 | Cn1c(O)c(C=NCCN2CCN(C(=O)c3ccccc3)CC2)c(=O)n(C)c1=O | -3.2%
61 | c1ccc(C2CC3CC(c4ccco4)N2O3)cc1 (centres undefined) | 8.3%
62 | COc1ccccc1N1C(=O)NC(=O)/C(=C\c2ccc(O)cc2)C1=O | -2.1%
63 | C1CCC2CNCCN2CC1 (centres undefined) | 4.8%
64 | COc1ccc(CCNCc2cccc(Cl)c2)cc1OC | -5.3%
65 | CN(C)CCC(=O)c1ccc(Cl)c(Cl)c1 | 7.5%
66 | O=c1c2ccccc2nc(/C=C\c2ccc(O)cc2)n1-c1ccc(O)cc1 | 17.7%
67 | C=CCN1C(=O)/C(=C\c2ccc(C)o2)C(=O)NC1=S | 12.6%
68 | CCC(=O)N1N=C2C3CCN(CC3)C2C1c1cccc([N+](=O)[O-])c1 (centres undefined) | -4.2%
69 | CCOC(=O)c1c(NC(=O)C23CC4CC(CC(C4)C2)C3)sc2c1CCCC2 | 8.4%
